Source: the supplement of paper PMC4967469
pIC50: −log10 of the molar value. The IC50 comes from the fitted curve, where viability falls to half of the control; fits outside the tested doses are given as limits. For AUC the same curve is integrated over the 256-fold range of doses and scaled to a fraction; the more sensitive the line, the further below 1. For some of these results: Any top dose called inferred comes from the curve model; the source does not state it. For some of these results: Where an entry number is given, a second screen of the drug exists; the two often differ.

Experiments:
Assay in all cases: Viability of human cancer cell lines after 72 h of drug (GDSC screen)
AZD-0530 = compound: CN1CCN(CCOc2cc(OC3CCOCC3)c3c(Nc4c(Cl)ccc5c4OCO5)ncnc3c2)CC1 [AZD-0530]; details: top dose 2 µM
Procedure: (§1)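 Human cancer cell lines in 384-well plates, medium with 10% serum, drug for 72 h over a 256-fold dose range (nine 2-fold or five 4-fold steps up to the top dose). Adherent lines were fixed and stained with the nucleic acid dye Syto60, suspension lines read with resazurin; signal relative to control wells, capped at 0 and 100%. One two-parameter sigmoid per drug and line, fitted in a mixed model over all curves with the slope shared within a line.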

Epothilone B = compound: C/C(=C\c1csc(C)n1)[C@@H]1C[C@@H]2O[C@]2(C)CCC[C@H](C)[C@H](O)[C@@H](C)C(=O)C(C)(C)[C@@H](O)CC(=O)O1 [Epothilone B]; details: top dose 0.032 µM; top dose inferred
Procedure: as §1

PHA-793887 = compound: CC(C)CC(=O)Nc1n[nH]c2c1CN(C(=O)C1CCN(C)CC1)C2(C)C [PHA-793887]; details: top dose 10.24 µM
Procedure: as §1

Y-39983 = compound: C[C@@H](N)c1ccc(C(=O)Nc2ccnc3[nH]ccc23)cc1 [Y-39983]; details: top dose 20 µM; top dose inferred
Procedure: as §1

Pyrimethamine = compound: CCc1nc(N)nc(N)c1-c1ccc(Cl)cc1 [Pyrimethamine]; details: top dose 20 µM; top dose inferred
Procedure: as §1

PLX4720 = compound: CCCS(=O)(=O)Nc1ccc(F)c(C(=O)c2c[nH]c3ncc(Cl)cc23)c1F [PLX4720]; details: top dose 10 µM
Procedure: as §1

TPCA-1 = compound: NC(=O)Nc1sc(-c2ccc(F)cc2)cc1C(N)=O [TPCA-1]; details: top dose 20 µM
Procedure: as §1

[1] = screen: GDSC drug entry 1371, top dose inferred

| Cell Line | AUC (AZD-0530) | pIC50 (AZD-0530) | AUC (Epothilone B) | pIC50 (Epothilone B) | AUC (PHA-793887) | pIC50 (PHA-793887) | AUC (Y-39983) | pIC50 (Y-39983) | AUC (Pyrimethamine) | pIC50 (Pyrimethamine) | AUC (PLX4720; screen: GDSC drug entry 1036) | pIC50 (PLX4720; screen: GDSC drug entry 1036) | AUC (PLX4720; [1]) | pIC50 (PLX4720; [1]) | AUC (TPCA-1) | pIC50 (TPCA-1) |
| --- | --- | --- | --- | --- | --- | --- | --- | --- | --- | --- | --- | --- | --- | --- | --- | --- |
| EW-3 (Ewing sarcoma, adherent) | 0.974 | < 5.70 | 0.946 | < 7.49 | 0.831 | 5.11 | 0.953 | < 4.70 | 0.96 | < 4.70 | 0.98 | < 5.00 | 0.92 | < 5.00 | 0.678 | 5.37 |
| EW-11 (Ewing sarcoma, adherent) | 0.965 | < 5.70 | 0.865 | < 7.49 | 0.704 | 5.54 | 0.981 | < 4.70 | 0.919 | < 4.70 | 0.967 | < 5.00 | 0.821 | 5.09 | 0.689 | 5.30 |
| EW-13 (Ewing sarcoma, suspension) | 0.98 | < 5.70 | 0.464 | 8.80 | 0.708 | 5.58 | 0.583 | 5.66 | 0.961 | < 4.70 | 0.983 | < 5.00 | 0.969 | < 5.00 | 0.512 | 5.87 |
| EW-16 (Ewing sarcoma, adherent) | 0.819 | 5.92 | 0.412 | 8.94 | 0.781 | 5.35 | 0.93 | < 4.70 | 0.844 | 4.82 | 0.919 | < 5.00 | 0.976 | < 5.00 | 0.672 | 5.41 |
| EW-18 (Ewing sarcoma, suspension) | 0.976 | < 5.70 | 0.556 | 8.54 | 0.598 | 5.92 | 0.891 | < 4.70 | 0.95 | < 4.70 | 0.882 | < 5.00 | 0.949 | < 5.00 | 0.53 | 5.82 |
| EW-24 (Ewing sarcoma, semi-adherent) | 0.766 | 6.19 | 0.935 | < 7.49 | 0.99 | < 4.99 | 0.982 | < 4.70 | 0.957 | < 4.70 | 0.983 | < 5.00 | 0.989 | < 5.00 | 0.892 | 4.73 |
| Farage (B-cell lymphoma, suspension) | 0.819 | 6.05 | 0.606 | 8.43 | 0.479 | 6.25 | 0.476 | 5.96 | 0.919 | < 4.70 | 0.924 | < 5.00 | 0.99 | < 5.00 | 0.453 | 6.02 |
| GB-1 (glioma, adherent) | 0.85 | 5.71 | 0.22 | 9.59 | 0.973 | < 4.99 | 0.856 | < 4.70 | 0.977 | < 4.70 | 0.93 | < 5.00 | 0.849 | 5.02 | 0.674 | 5.38 |
| GCIY (stomach, adherent) | 0.866 | < 5.70 | 0.639 | 8.29 | 0.961 | < 4.99 | 0.981 | < 4.70 | 0.835 | 4.81 | 0.983 | < 5.00 | – | – | 0.922 | < 4.70 |
